Test results as given in PubChem BioAssay AID1508642 (National Center for Advancing Translational Sciences (NCATS), 2021).
About 200 (0.47%) of roughly 43,000 compounds were called active. About 12% were inconclusive and are not listed. The call rests on the fitted dose curve; in most records, active means well fitted cell-killing curve with a large enough effect; inconclusive means small, poorly fitted or top-dose-only effect, or effect the other way; inactive means flat fitted curve, though single readings scatter. The list shows a part of the results.

experiment: Cell viability qHTS assay in S16 Pmp22-F2sN cells; conditions: S16 Pmp22-F2sN Schwann cells (luciferase reporters placed in the Pmp22 gene) viability, CellTiter-Glo, 24 h; series mostly up to 57.5 µM; activity change, negative = cytotoxicity: at the top concentration; further: nearly all actives have a fitted effect of over 65% in size
How it was run: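 Luminescence from CellTiter-Glo, read by CCD camera after a 15 min room-temperature incubation, served as the viability signal. Reporter Schwann cells (S16 Pmp22-F2sN) had been treated with pin-transferred compounds for 24 h at 37C.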
On the % scale 0 is the no-effect control and ±100 the full control effect.

Row | SMILES | activity change, negative = cytotoxicity
1 | O=C(CSc1nccn1Cc1ccco1)Nc1cccc(F)c1 | inactive: -16.5%
2 | COc1ccc(OCC(=O)Nc2nnc(S(=O)(=O)N3CCCCCC3)s2)cc1 | inactive: 3.6%
3 | CCCCc1ccc(NC(=O)c2cc3c(=O)n4ccccc4nc3n2C)cc1 | inactive: 17.6%
4 | COC(=O)Cn1c(=O)c2c(nc3n2CCN3c2cccc(C)c2)n(C)c1=O | inactive: 6.46%
5 | CCN(CC)S(=O)(=O)c1ccc(NC(=O)[C@H](CSCc2ccccc2)N2Cc3ccccc3C2=O)cc1 | inactive: -13.5%
6 | COc1ccc2nc3sc(C(=O)Nc4ccccc4F)cc3cc2c1 | inactive: 3.89%
7 | COc1ccc(NC(=O)CCCc2nc(-c3ccco3)no2)c(OC)c1 | inactive: -3.34%
8 | CCOc1ccc(NS(=O)(=O)c2ccc3[nH]cc(C(=O)NCc4ccco4)c(=O)c3c2)cc1 | inactive: -12.2%
9 | COc1cccc(OC(=O)CSc2nnc(-c3ccccc3OC)o2)c1 | inactive: 7.16%
10 | COc1ccc(Cl)cc1NC(=O)c1cc2nc(-c3ccc4c(c3)OCO4)cc(C(F)(F)F)n2n1 | inactive: -4.04%
11 | COc1ccc(C(=O)O)cc1Nc1nc2ccc(C)cc2n2cnnc12 | inactive: 14.1%
12 | Cc1cccc(NC(=O)c2sc3nc4n(c(=O)c3c2C)N=C(c2ccc(F)cc2)CS4)c1C | inactive: 0.665%
13 | Cc1ccc(C)c(N2CCN(c3nc4ccccc4c4nc(CCn5nc(C)cc5C)nn34)CC2)c1 | inactive: 0.856%
14 | O=C(CSc1nc(-c2ccc(Cl)cc2)nc2c1Cc1ccccc1O2)N1CCCCC1 | inactive: 14.3%
15 | Cc1cccc(C)c1-n1ncc(C(=O)Nc2ccc3c(c2)OCCO3)c1C1CCN(C(=O)OC(C)(C)C)CC1 | inactive: -20.4%
16 | CCOCCOC(=O)c1ccc(NC(=O)/C=C/c2ccc(OC)c(OC)c2)cc1 | inactive: 0.471%
17 | O=C(CSc1ncc2c(n1)-c1ccccc1N(Cc1ccc(F)cc1)S2(=O)=O)c1ccc(Cl)cc1 | inactive: -1.36%
18 | CCc1cc2c(cc3c(=O)n(CC(=O)N4CCN(c5cc(Cl)ccc5C)CC4)ncn32)s1 | inactive: 13.5%
19 | Cc1ccc(S(=O)(=O)c2cn(C)c3cc(N4CCN(C)CC4)c(F)cc3c2=O)cc1 | inactive: 1.37%
20 | COc1ccccc1N1CCN(S(=O)(=O)c2c(C)sc3ncn(CC(=O)N(C)c4ccc(C(C)C)cc4)c(=O)c23)CC1 | inactive: -8.72%
21 | CNS(=O)(=O)c1ccc(OC)c(-c2nnc3c4ccccc4c(C)nn23)c1 | inactive: -3.87%
22 | Cc1ccc(NCc2cccn2-c2nnc(N3CCC(C(=O)NCc4ccc(OC(C)C)cc4)CC3)s2)cc1 | inactive: -18.3%
23 | CC(C)OCCCN(Cc1ccco1)C(=O)c1cc2c(s1)-c1ccccc1OC2 | inactive: 11.1%
24 | CCN(CC)C(=O)Cn1cc(SCC(=O)Nc2cccc(C)c2)c2ccccc21 | inactive: 8.05%

Row | SMILES | activity change, negative = cytotoxicity
25 | COCc1cc(C)n(CC(=O)Nc2ccc(NC(C)=O)cc2)c(=O)c1C#N | inactive: -6.81%
26 | CC(C)Oc1ccc(CNC(=O)C2CCN(C(=O)c3sccc3-n3cccc3)CC2)cc1 | inactive: -2.02%
27 | COc1ccccc1CNC(=O)CN1C(=O)CSc2ccc(S(=O)(=O)N3CCCC3)cc21 | inactive: 5.03%
28 | Cc1ccc(Cl)cc1NC(=O)N1CCN(C)c2ncccc21 | inactive: 14.5%
29 | Cc1cccc(C(=O)N2CCc3cc(CNC(=O)CCc4ccccc4)ccc32)c1 | inactive: -18.7%
30 | COc1ccccc1-c1noc(-c2ccc(N3CCN(c4ccccc4)CC3)c([N+](=O)[O-])c2)n1 | inactive: -10.4%
31 | CC1=C(C#N)C(NC(=O)c2cccc(Cl)c2)(C(F)(F)F)C(=O)N1 (stereo not given) | inactive: 0.962%
32 | Cc1cn2c(=O)cc(COc3ccc(NC(=O)c4cccc(F)c4)cc3)nc2s1 | inactive: 11.5%
33 | Cc1nn(CCCC(=O)Nc2ccccc2C(F)(F)F)c(=O)c2c1sc1ccccc12 | inactive: 5.09%
34 | CN(C)CCN(Cc1ccco1)S(=O)(=O)c1cc2c(cc1Cl)NC(=O)CO2 | inactive: 25.2%
35 | COc1ccccc1CCNC(=O)CCc1c(C)c2cc3c(C)coc3c(C)c2oc1=O | inactive: 0.754%
36 | Cn1c(=O)n(C)c2cc(NS(=O)(=O)c3ccccc3)c(NCc3ccccc3)cc21 | inactive: 1.03%
37 | O=C(NCCO)C(=O)Nc1c2c(nn1-c1ccc(F)cc1)CSC2 | inactive: 8.56%
38 | CCC(Sc1nnc(C)n2c1cc1occc12)C(=O)Nc1ccccc1F (stereo not given) | inactive: -8.59%
39 | CC(=O)Nc1cccc(NC(=O)Cn2cnc3c2c(=O)n(C)c(=O)n3C)c1 | inactive: 11.1%
40 | O=C(Nc1ccc(C(=O)OCc2cc(=O)n3nc(C4CC4)sc3n2)cc1)c1ccc(F)cc1 | inactive: 3.2%
41 | Cc1nc(N2CCCC2)c2c(C(=O)Nc3cccc(C)c3C)c(C)oc2n1 | inactive: 2.32%
42 | CCN(CC)c1ccc(NC(=O)C(Cc2ccccc2)NS(=O)(=O)c2ccc(Br)s2)c(C)c1 (stereo not given) | inactive: -3.93%
43 | COc1ccccc1N1CCN(C(=O)Cn2ncc3c(=O)oc4ccccc4c32)CC1 | inactive: 19%
44 | COc1ccc(S(=O)(=O)N(CC(=O)NCc2ccccc2OC)c2ccc(C)cc2)cc1 | inactive: -14.4%
45 | CCOc1ccccc1N(C)C(=O)Cn1cnc2sc(C)c(S(=O)(=O)N3CCC(C)CC3)c2c1=O | inactive: -1.15%
46 | COc1cc(OC)c(NC(=O)COCc2cc(-c3cccs3)on2)cc1Cl | inactive: 4.23%
47 | CCOc1cc(-c2nc(-c3ccc(-c4ccc(C)cc4)nc3OC)no2)cc(OCC)c1OCC | inactive: 6.96%
48 | COc1ccc(Cl)cc1NC(=O)Cn1c2ncccc2c(=O)n1-c1ccc(C)c(C)c1 | inactive: -1.49%

Row | SMILES | activity change, negative = cytotoxicity
49 | Cc1cc(C)cc(N(CC(=O)Nc2cccc(C)c2C)S(=O)(=O)c2c(C)[nH]c(=O)[nH]c2=O)c1 | inactive: 4.28%
50 | COc1ccc(C2C=C(c3ccccc3)Nc3nc(NC(=O)c4ccc(C)cc4)nn32)cc1 (stereo not given) | inactive: -28.2%
51 | COc1ccc2c(CNCc3ccc(C)o3)c(C(=O)O)n(Cc3ccccc3)c2c1 | inactive: 1.99%
52 | Cc1ccc(NC(=O)Nc2nnc(N(C)Cc3ccccc3)s2)cc1 | inactive: 6.36%
53 | Cc1cc(NS(=O)(=O)c2ccc(NC(=O)COc3ccc(Cl)cc3)cc2)nc(C)n1 | inactive: 1.37%
54 | Cc1ccc(-n2nc3c(=O)n(CC(=O)Nc4ccccc4F)nc(C)c3c2C)c(C)c1 | inactive: -22.7%
55 | COC(=O)c1ccc(Cl)cc1NC(=O)N1CC(C)Oc2ccccc21 (stereo not given) | inactive: 1.81%
56 | CCOC(=O)c1ccc(NC(=O)c2cc3cc(C)ccc3n2C)cc1 | inactive: 3.42%
57 | Cc1cc(C)c2oc(C(=O)N(Cc3ccc(F)cc3)C3CCS(=O)(=O)C3)cc(=O)c2c1 (stereo not given) | inactive: 19.9%
58 | CN(C(=O)c1cc(-c2ccccc2O)on1)c1ccccc1 | inactive: -8.08%
59 | COc1ccc(S(=O)(=O)N2CCC(c3ccncc3)CC2)cc1Cl | inactive: -16.7%
60 | CCCCOc1c(Cl)cc(C(=O)N(Cc2ccc(C)o2)C2CCS(=O)(=O)C2)cc1Cl (stereo not given) | inactive: -16.8%
61 | COc1ccc(C(CNC(=O)COc2ccc(C)cc2)N2CCCCC2)cc1 (stereo not given) | inactive: -1.17%
62 | COc1ccccc1NC(=O)c1c(NCc2sccc2C)sc2c1CCCCC2 | inactive: -19.4%
63 | CN(C(=O)Cn1c(=O)n(CCCS(=O)(=O)C2CCCCC2)c(=O)c2ccccc21)c1ccccc1 | inactive: 11.9%
64 | CCOC(=O)c1c(C)oc2ccc(N(C(=O)Oc3ccccc3)S(=O)(=O)c3ccccc3)cc12 | inactive: 2.55%
65 | CCOc1ccc(/C=C(\C#N)c2nc(-c3cc4ccccc4oc3=O)cs2)c(OCC)c1 | inactive: 6.06%
66 | CCN1CCN(C(c2ccc(OC)cc2)c2c(O)cc(C)n(CCOC)c2=O)CC1 (stereo not given) | inactive: -2.87%
67 | Cc1cc(C)cc(NC(=O)CSc2nccn2-c2ccccc2)c1 | inactive: -1.31%
68 | Cc1cc(Br)ccc1NC(=O)c1cc2c(=O)n(C)c3cc(Cl)ccc3c2s1 | inactive: 14.4%
69 | O=C(NC1CC(=O)N(c2ccccc2)C1)C1CCCCC1 (stereo not given) | inactive: -3.28%
70 | Cc1cccc(NC(=O)C2CCN(S(=O)(=O)c3cccc4nsnc34)CC2)c1C | inactive: 26.1%
71 | COc1ccc(NC(=O)C2=C(C)Nc3nc(SCc4ccccc4C)nn3C2c2ccc(Br)cc2)cc1 (stereo not given) | inactive: -5.08%
72 | Cc1ccc2c(c1)sc1nc(=O)n(-c3ccc(Cl)cc3)c(=O)n12 | inactive: 12.6%

Row | SMILES | activity change, negative = cytotoxicity
73 | Cc1ccc(-c2cc(N)n3nc(-c4ccc(C)cc4)cc3n2)cc1 | inactive: -4%
74 | CCOC(=O)c1noc2ncnc(Nc3ccc(C)c(F)c3)c12 | inactive: 12%
75 | CC(=O)c1ccc(N2CCN(c3nc4c(S(=O)(=O)c5ccccc5)nnn4c4ccc(Cl)cc34)CC2)cc1 | inactive: -1.89%
76 | Cc1c(-c2nsc(NC(=O)c3ccc(Cl)cc3)n2)nnn1-c1ccc(C(C)C)cc1 | inactive: -1.85%
77 | CC(CC(=O)NCc1ccc(Cl)cc1)CC1=NS(=O)(=O)c2ccccc2N1 (stereo not given) | inactive: 5.26%
78 | O=C(Cn1cc(SCc2ccc(C(F)(F)F)cc2)c2ccccc21)N1CCCCC1 | inactive: -5.04%
79 | COc1ccc2c(CNCc3ccc(Cl)cc3)c(C(=O)O)n(Cc3ccccc3C)c2c1 | inactive: -5.72%
80 | CCc1cccc2c(-c3ccccc3)nc(SCC(=O)Nc3ccccc3)nc12 | inactive: 4.37%
81 | COc1ccc(N2CCN(CCCNC(=O)C3COc4ccc(OC)cc4C3)CC2)cc1 (stereo not given) | inactive: -17.4%
82 | COc1ccc(-c2cc(C)no2)cc1S(=O)(=O)NCc1ccc(OC(C)C)cc1 | inactive: -0.394%
83 | CCC(=O)N1c2ccccc2CC1C(=O)NCCc1ccc(SC)cc1 (stereo not given) | inactive: 15.1%
84 | Cc1ccccc1OCCn1cc(C(=O)C2CCCCC2)c2ccccc21 | inactive: 0.18%
85 | CCOC(=O)Cn1c(C2CC(=O)N(c3ccc(C)cc3)C2)nc2ccccc21 (stereo not given) | inactive: 9.81%
86 | Cc1ccc(C)c(N2CCN(C(=O)Cn3cnc4sc(C)c(S(=O)(=O)N5CCN(c6ncccn6)CC5)c4c3=O)CC2)c1 | inactive: -28.4%
87 | O=[N+]([O-])c1ccc(C(c2sc3nc(-c4ccco4)nn3c2O)N2CCN(Cc3ccccc3)CC2)cc1 (stereo not given) | inactive: 7.28%
88 | O=C(Nc1ccc(OCc2cc(=O)n3ccsc3n2)cc1)c1ccc(F)cc1 | inactive: 7.4%
89 | Cc1nnc(N2CCC(C(=O)NCCc3ccccc3)CC2)c2nn(-c3ccccc3)c(C)c12 | inactive: 0.725%
90 | COc1ccc(CNC(=O)CSCc2nc(-c3ccccc3F)oc2C)cc1 | inactive: -6.22%
91 | CCc1ccc(-c2nc(CN3CCC(C(=O)NCCc4ccc(C)cc4)CC3)c(C)o2)cc1 | inactive: 21%
92 | Cc1cccc(N(CC(=O)NCc2ccccc2)S(C)(=O)=O)c1C | inactive: -2.34%
93 | Cc1ccc(C)c(NC(=O)Cn2cnc3c(oc4ccccc43)c2=O)c1 | inactive: 0.897%
94 | COc1ccc(NC(=O)C(c2ccccc2)N2Cc3ccccc3C2=O)cc1 (stereo not given) | inactive: 0.799%
95 | Cc1cc(C)c2c(=O)cc(C(=O)Nc3ccc(C)c(Cl)c3)oc2c1 | inactive: 0.0088%
